Experimental data from a compilation of properties of binary mixtures (doi:10.1016/j.molliq.2021.115610).
Some of these densities may be calculated back from excess volumes.

Assay: xn = mol fraction of the nth substance listed
Conditions: 298 K, 101 kPa

Compound	mass density (x2 = 0.112)	mass density (x2 = 0.2)	mass density (x2 = 0.95)	mass density (x2 = 0)	mass density (x2 = 0.1)	mass density (x2 = 0.198)	mass density (x2 = 0.294)	mass density (x2 = 0.394)	mass density (x2 = 0.5)	mass density (x2 = 0.6)	mass density (x2 = 0.799)	mass density (x2 = 0.9)
CCCC[NH3+].O=[N+]([O-])[O-] + O	1105.1 kg/m3	1104.4 kg/m3	1037.3 kg/m3									
CC[NH3+].O=[N+]([O-])[O-] + O				1211.2 kg/m3	1208.5 kg/m3	1204.9 kg/m3	1200.7 kg/m3	1194.4 kg/m3	1186.5 kg/m3	1175.6 kg/m3	1133.4 kg/m3	1089.7 kg/m3
